The structures appear in SMILES notation. Structures can show the parent of a compound that is named as a salt. Some of the results follow.

The test system of the assay is Schistosoma mansoni schistosomula. In words: phenotypic hit in primary schistosomula screen (any phenotype vs DMSO control) (binary (1 = hit, 0 = no phenotype)); higher = active (phenotype induced). Conditions: 1 µM; time (d): 7.
For the compound `CCN(CC)Cc1cc(Nc2ccnc3cc(Cl)ccc23)ccc1O` [amodiaquine dihydrochloride], the phenotypic hit is inactive: 0.
Then `CC(=O)Oc1ccc(O)cc1` [4-acetoxyphenol], with inactive: 0; and `CC(=O)OCC[N+](C)(C)C` [acetylcholine], with inactive: 0.
Then `O=C(O)c1nc2cc(Cl)c(Cl)cc2nc1O` [6,7-dichloro-3-hydroxy-2-quinoxalinecarboxylic acid], with inactive: 0.
With `CC(=O)O[C@H]1C[C@@H](OC(C)=O)C(C)(C)C2CC(=O)[C@]3(C)C(CC[C@@]4(C)[C@H](c5ccoc5)OC(=O)[C@H]5O[C@]543)[C@]21C` (stereo partly specified) [7-deacetoxy-7-oxokhivorin] the figure was inactive: 0; with `CC(=O)O[C@@H]1CC2C(C)(C)C(=O)CC[C@]2(C)C2CC[C@]3(C)C(=CC(=O)O[C@H]3c3ccoc3)[C@@]21C` (stereo partly specified) [dihydrodeoxygedunin], inactive: 0.
For the compound `OCCN1C[C@H](O)[C@@H](O)[C@H](O)[C@H]1CO` [miglitol], the phenotypic hit was inactive: 0.
Then `CC(C)C(=O)Nc1ccc([N+](=O)[O-])c(C(F)(F)F)c1` [flutamide], with inactive: 0.
Then `Cn1cnc([N+](=O)[O-])c1Sc1ncnc2[nH]cnc12` [Azathioprine], with inactive: 0.
On to `COc1cc(C)c2c(=O)c3c(O)cc(O)cc3oc2c1` [methylnorlichexanthone], for which the phenotypic hit was inactive: 0.
With `Cc1coc2ccccc2c1=O` [methylchromone] the figure was inactive: 0; with `O=C(O)CCCC[C@@H]1SC[C@@H]2NC(=O)N[C@@H]21` [biotin], inactive: 0; with `CC1COc2c(N3CCN(C)CC3)c(F)cc3c(=O)c(C(=O)O)cn1c23` (stereo unspecified) [ofloxacin], inactive: 0.
With `C[C@H](CCC(=O)O)[C@H]1CC[C@H]2[C@@H]3CC[C@@H]4C[C@H](O)CC[C@]4(C)[C@H]3CC[C@]12C` [lithocholic acid] the figure was inactive: 0.
With `COC(=O)C1=C(C)NC(C)=C(C(=O)OC(C)C)C1c1cccc2nonc12` (stereo unspecified) [isradipine] the figure was inactive: 0.
Take `C[N+](C)(C)CCO.[Cl-]` [choline chloride]: the phenotypic hit was inactive: 0.
Then `CN1CCC(OC(c2ccccc2)c2ccccc2)CC1` [diphenylpyraline hydrochloride], with inactive: 0.
Then `COc1cccc(-c2cc(=O)c3ccc(OC)cc3o2)c1` [7,3'-dimethoxyflavone], with inactive: 0.
Then `COc1ccc(/C=C/C(=O)O)cc1O` [isoferulic acid], with inactive: 0; and `Cc1cc(O)c2c(c1)C(=O)c1cc(O)cc(O)c1C2=O` [emodin], with inactive: 0; and `Fc1ccc([C@@H]2CCNC[C@H]2COc2ccc3c(c2)OCO3)cc1` [paroxetine hydrochloride], with inactive: 0.
Consider `CN(C)CCCN1c2ccccc2CCc2ccccc21` [Imipramine hydrochloride], for which the phenotypic hit is active: 1.
Then `C[C@H]1COc2c(N3CCN(C)CC3)c(F)cc3c(=O)c(C(=O)O)cn1c23` [levofloxacin], with inactive: 0; and `C=C1CCC2C(CC2(C)C)C(=O)CCC1O` (stereo unspecified) [isokobusone], with inactive: 0.
Then `NC(CO)C(=O)NNCc1ccc(O)c(O)c1O` (stereo unspecified) [Benserazide hydrochloride], with inactive: 0; and `COc1ccc2c(c1)OC[C@@H](Cc1ccc(OC)c(OC)c1)[C@H]2O` [tetrahydrosappanone a trimethyl ether], with inactive: 0.
With `NCC[C@H](O)C(=O)N[C@@H]1C[C@H](N)[C@@H](O[C@H]2O[C@H](CN)[C@@H](O)[C@H](O)[C@H]2O)[C@H](O)[C@H]1O[C@H]1O[C@H](CO)[C@@H](O)[C@H](N)[C@H]1O` [amikacin sulfate] the figure was inactive: 0; with `CC(=O)O[C@@](C)(CCC=C(C)C)C1CC=C(C)CC1` (stereo partly specified) [bisabolol acetate], inactive: 0; with `CC(C)=CCOc1cc2oc(=O)ccc2cc1O` [prenyletin], inactive: 0.
For `COc1ccc(C(=O)CC(=O)O)c2c1C=CC(C)(C)O2` [ursinic acid], the phenotypic hit is inactive: 0.
With `COC(=O)C[C@H]1C(C)(C)C(=O)[C@@H]2CC3=C4CC(=O)O[C@@H](c5ccoc5)[C@]4(C)CC[C@@H]3[C@@]1(C)C2=O` [mexicanolide] the figure was inactive: 0; with `CC(C)=CCC[C@](C)(O)C1CC=C(C)CC1` (stereo partly specified) [bisabolol], inactive: 0.
With `CCOC(=O)C(=O)C1(C(=O)OCC)Oc2cc(OC)cc(OC)c2C(=O)C1c1ccccc1` (stereo unspecified) the figure was inactive: 0.
As for `CCCCCCc1ccc(O)cc1O` [hexylresorcinol], the phenotypic hit is inactive: 0.
Then `CC1(C)NC(=O)N(c2ccc([N+](=O)[O-])c(C(F)(F)F)c2)C1=O` [nilutamide], with inactive: 0; and `COC(=O)[C@@H]1[C@H]2C[C@H]3c4[nH]c5ccccc5c4CCN3C[C@@H]2CC[C@@H]1O` [Yohimbine hydrochloride], with inactive: 0; and `C=C(C)[C@@H]1CC=C(C(=O)O)CC1` [perillic acid (-)], with inactive: 0.
With `CCCCOc1cc(C(=O)NCCN(CC)CC)c2ccccc2n1` [dibucaine hydrochloride] the figure was inactive: 0; with `COc1cc(OC)c2c(c1)OC(c1ccccc1)CC2=O` (stereo unspecified) [alpinetin methyl ether], inactive: 0.
Then `CCS(=O)(=O)CCn1c([N+](=O)[O-])cnc1C` [tinidazole], with active: 1.
Turning to `Sc1nc2ccccc2s1` [2-mercaptobenzothiazole], the phenotypic hit is inactive: 0.
Then `COc1ccc2cc1Oc1ccc(cc1)C[C@H]1c3cc(c(OC)cc3CCN1C)Oc1c(OC)c(OC)cc3c1[C@H](C2)N(C)CC3` [tetrandrine], with active: 1; and `C=C1C2CCC3(C)C(c4ccoc4)OC(=O)CC13OC1CC(OC(C)=O)C(C)(C)C(CC(=O)OC)C12C` (stereo not drawn) [3beta-acetoxydeoxyangolensic acid, methyl ester], with inactive: 0; and `COc1ccc(C(=O)/C=C/c2ccccc2)cc1` [4'-methoxychalcone], with active: 1.
Then `CNCCC(Oc1ccc(C(F)(F)F)cc1)c1ccccc1` (stereo unspecified) [Fluoxetine hydrochloride], with active: 1; and `CC1CCC(C(C)C)C(O)C1` (single isomer, unassigned; (-)) [(-)-menthol], with inactive: 0; and `CC(C)(OC(=O)c1ccccc1)[C@@H]1Cc2cc3ccc(=O)oc3cc2O1` [felamidin], with inactive: 0.
With `C=C1C(=O)O[C@@H]2C[C@@]3(C)CCC[C@H](C)C3=C[C@H]12` [helenine] the figure was inactive: 0; with `O=C(O)c1cc(-c2ccc(F)cc2F)ccc1O` [diflunisal], inactive: 0.
In the case of `CCCCNC(=O)NS(=O)(=O)c1ccc(C)cc1` [Tolbutamide], the phenotypic hit is inactive: 0.
Then `O[C@H]1[C@H]2c3cc4c(cc3CN3CCC(=C[C@@H]1O)[C@H]23)OCO4` [lycorine], with active: 1; and `COc1ccc2c(c1)OC1(c3ccccc3OC)CC1C2=O` (stereo unspecified) [2,3-methano-7,2'-dimethoxyflavanone], with inactive: 0; and `CC(=O)[C@H]1CC[C@H]2[C@@H]3C[C@H](C)C4=CC(=O)CC[C@]4(C)[C@H]3[C@@H](O)C[C@]12C` [medrysone], with inactive: 0.
Then `CCn1cc(C(=O)O)c(=O)c2cnc(N3CCCC3)nc21` [piromidic acid], with inactive: 0; and `O=S(=O)(O)CCS` [mesna], with inactive: 0.
Then `CCCCCCCCCCCCC[N+](C)(C)Cc1ccccc1` [benzalkonium chloride], with active: 1; and `COC(=O)C[C@H]1C(C)(C)[C@@H](O)[C@@H]2CC3=C4CC(O)O[C@@H](c5ccoc5)[C@]4(C)CCC3[C@@]1(C)C2=O` (stereo partly drawn) [3,16-dideoxymexicanolide-3beta-diol], with inactive: 0; and `COc1ccc(-c2cc(=O)c3c(O)cc(O[C@@H]4O[C@H](CO[C@@H]5O[C@@H](C)[C@H](O)[C@@H](O)[C@H]5O)[C@@H](O)[C@H](O)[C@H]4O)cc3o2)cc1O` [diosmin], with inactive: 0.
Take `COC(=O)c1c(OC)cc2c(c1C)Oc1c(Cl)c(OC(C)=O)c(Cl)c(C)c1C(=O)O2` [gangleoidin acetate]: the phenotypic hit was inactive: 0.
With `COc1cc(O)cc(/C=C/c2ccccc2)c1` [pinosylvin methyl ether] the figure was inactive: 0.
On to `C=C1C[C@]23C[C@@]1(O)CC[C@H]2[C@@]12C=C[C@H](O)[C@@](C)(C(=O)O1)[C@H]2[C@@H]3C(=O)O` [gibberellic acid], for which the phenotypic hit was inactive: 0.
With `CN1[C@@H](CC(=O)c2ccccc2)CCC[C@H]1C[C@H](O)c1ccccc1` [lobeline hydrochloride] the figure was inactive: 0; with `c1ccc2[nH]c(-c3cscn3)nc2c1` [thiabendazole], inactive: 0.
With `COc1cc(C)c(C(=O)Oc2cc(C)c(C(=O)O)c(O)c2C)c(O)c1C=O` [baeomycesic acid] the figure was inactive: 0.
Then `NC(=O)NC(=O)Cc1ccccc1` [phenacemide], with inactive: 0; and `CC(=O)Oc1cc2c(c(C)c1OC(C)=O)CC1OC13[C@@]2(C)CC[C@@]1(C)C2C[C@](C)(C(=O)O)CC[C@]2(C)CC[C@]31C` (stereo partly specified), with inactive: 0; and `C[C@]12CC[C@@H]3c4ccc(O)cc4CC[C@H]3[C@@H]1CCC2=O` [estrone], with inactive: 0.
For `Cc1cc(=O)c2c(O)c(C)c(O)cc2o1` [eugenitol], the phenotypic hit is inactive: 0.
With `CC(=O)OCC1=C(C(=O)O)N2C(=O)[C@@H](NC(=O)CSc3ccncc3)[C@H]2SC1` [cephapirin sodium] the figure was inactive: 0.
Then `CN(C)[C@@H]1C(O)=C(C(N)=O)C(=O)[C@@]2(O)C(O)=C3C(=O)c4c(O)ccc(Cl)c4[C@@](C)(O)[C@H]3C[C@@H]12` [chlortetracycline], with inactive: 0; and `Cc1cccc(CN2CCN(C(c3ccccc3)c3ccc(Cl)cc3)CC2)c1` (stereo unspecified) [meclizine hydrochloride], with inactive: 0.

(Values after the supplement of paper PMC2702839.)
